# Reference: the supplement of paper PMC12217912
# The other results are listed elsewhere or left out. Sequences were assembled here from the parent chain. Values near 0.05 are background.
# B1: TEV protease; numbered along this chain (parent)
# chain: MGESLFKGPRDYNPISSSICHLTNESDGHTTSLYGIGFGPFIITNKHLFRRNNGTLVVQSLHGVFKVKDTTTLQQHLVDGRDMIIIRMPKDFPPFPQKLKFREPQREERICLVTTNFQTKSMSSMVSDTSCTFPSGDGIFWKHWIQTKDGQCGSPLVSTRDGFIVGIHSASNFTNTNNYFTSVPKNFMELLTNQEAQQWVSGWRLNADSVLWGGHKVFMVKPEEPFQPVKEATQL
# Variants of: B1
# Assay: raw area under fraction-flipped curve 0-4 h after induction (AUC4h, not background-subtracted), DNA-recorder readout of cleavage of the substrate (dimensionless); higher = more cleavage of the substrate by the protease variant
# Conditions: temperature: 34 °C; time window: 0-4 h after rhamnose induction
# Protocol: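 In vivo DNA recorder in E. coli TOP10(DE3) ΔrhaA at 34 °C. Each TEVp single-site mutant (parent TEVp 0) is paired with a single-site variant of the 7-mer TEVs (canonical ENLYFQ|S). The substrate sits between flexible linkers in a Bxb1-sfGFP-TEVs-SsrA fusion, so cleavage stabilises Bxb1 and speeds flipping of a recombination array, read by NGS. The value is the raw area under the fraction-flipped curve over 0-4 h after rhamnose induction (AUC4h), with ≥20 reads per time point. It is not background-subtracted; inactive controls average about 0.047.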
# 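Also: Bxb1 expression induced with 0.2% (w/v) L-rhamnose at OD600 near 0.5, cultures sampled hourly, flipped fraction per protease–substrate barcode pair counted by paired-end Illumina sequencing.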
Variant,area with substrate ENLDFQS,area with substrate ENLFFQS,area with substrate ENLHFQS,area with substrate ENLIFQS,area with substrate ENLKFQS,area with substrate ENLLFQS,area with substrate ENLMFQS,area with substrate ENLNFQS,area with substrate ENLPFQS,area with substrate ENLRFQS,area with substrate ENLSFQS,area with substrate ENLEFQS,area with substrate ENLTFQS,area with substrate ENLVFQS,area with substrate ENLWFQS,area with substrate ENLQFQS,area with substrate ENLGFQS
MGESLFKGPRDYNPISSSICHLTNESDGHTTSLYGIGFGPFIITNKPLFRRNNGTLVVQSLHGVFKVKDTTTLQQHLVDGRDMIIIRMPKDFPPFPQKLKFREPQREERICLVTTNFQTKSMSSMVSDTSCTFPSGDGIFWKHWIQTKDGQCGSPLVSTRDGFIVGIHSASNFTNTNNYFTSVPKNFMELLTNQEAQQWVSGWRLNADSVLWGGHKVFMVKPEEPFQPVKEATQL [H47P],0.0552,0.0541,0.0569,0.0694,0.065,0.0544,0.101,0.0655,0.0741,0.0636,0.0452,,,,,,
MGESLFKGPRDYNPISSSICHLTNESDGHTTSLYGIGFGPFIITNKHLFRRNNGTLVVQSLHGVFKVKNTTTLQQHLVDGRDMIIIRMPKDFPPFPQKLKFREPQREERICLVTTNFQTKSMSSMVSDTSCTFPSGDGIFWKHWIQTKDGQCGSPLVSTRDGFIVGIHSASNFTNTNNYFTSVPKNFMELLTNQEAQQWVSGWRLNADSVLWGGHKVFMVKPEEPFQPVKEATQL [D69N],0.0643,0.0885,,,0.116,,,,0.0717,,,0.0901,0.0641,0.146,0.0514,,
MGESLFKGPRDYNPISSSICHLTNESDGHNTSLYGIGFGPFIITNKHLFRRNNGTLVVQSLHGVFKVKDTTTLQQHLVDGRDMIIIRMPKDFPPFPQKLKFREPQREERICLVTTNFQTKSMSSMVSDTSCTFPSGDGIFWKHWIQTKDGQCGSPLVSTRDGFIVGIHSASNFTNTNNYFTSVPKNFMELLTNQEAQQWVSGWRLNADSVLWGGHKVFMVKPEEPFQPVKEATQL [T30N],0.0555,0.0692,0.0714,,0.0716,,0.067,0.0728,0.0557,0.0634,0.0611,,,0.0691,0.0607,0.0643,
MGESLFKGPRDYNPISSSICHLTNESDGHTTSLYGIGGGPFIITNKHLFRRNNGTLVVQSLHGVFKVKDTTTLQQHLVDGRDMIIIRMPKDFPPFPQKLKFREPQREERICLVTTNFQTKSMSSMVSDTSCTFPSGDGIFWKHWIQTKDGQCGSPLVSTRDGFIVGIHSASNFTNTNNYFTSVPKNFMELLTNQEAQQWVSGWRLNADSVLWGGHKVFMVKPEEPFQPVKEATQL [F38G],0.0352,,,,,0.0492,,,,0.0387,,,,,,0.0456,
MGESLFKGPRDYNPISSSICHLTNESDGHTTSLYGIGFGPFIITNKHLFRRNNGTLVVQSLHGVFKVKDTTTLQQHLVDGRDMFIIRMPKDFPPFPQKLKFREPQREERICLVTTNFQTKSMSSMVSDTSCTFPSGDGIFWKHWIQTKDGQCGSPLVSTRDGFIVGIHSASNFTNTNNYFTSVPKNFMELLTNQEAQQWVSGWRLNADSVLWGGHKVFMVKPEEPFQPVKEATQL [I84F],0.0592,0.0563,0.079,0.0535,0.0617,0.0595,,,0.0719,,0.0559,,,,,,
MGESLFKGPRDYNPISSSICHLTNESDGHTKSLYGIGFGPFIITNKHLFRRNNGTLVVQSLHGVFKVKDTTTLQQHLVDGRDMIIIRMPKDFPPFPQKLKFREPQREERICLVTTNFQTKSMSSMVSDTSCTFPSGDGIFWKHWIQTKDGQCGSPLVSTRDGFIVGIHSASNFTNTNNYFTSVPKNFMELLTNQEAQQWVSGWRLNADSVLWGGHKVFMVKPEEPFQPVKEATQL [T31K],0.0551,0.0518,,0.0676,0.06,,0.0614,0.0604,0.062,,,0.0563,0.0561,,0.0587,,
MGESLFKGPRDYNPISSSICHLTNESDGHTTSLYGIGFGPFIIGNKHLFRRNNGTLVVQSLHGVFKVKDTTTLQQHLVDGRDMIIIRMPKDFPPFPQKLKFREPQREERICLVTTNFQTKSMSSMVSDTSCTFPSGDGIFWKHWIQTKDGQCGSPLVSTRDGFIVGIHSASNFTNTNNYFTSVPKNFMELLTNQEAQQWVSGWRLNADSVLWGGHKVFMVKPEEPFQPVKEATQL [T44G],0.059,0.0688,0.0532,0.056,0.0635,0.0406,0.0565,0.0531,0.0488,,0.053,,,0.0775,0.0973,0.0503,0.0539
MGESLFKGPRDYNPISSSICHLTNESDGHTTSLYGIGFGPFIITNKHLFRRNNGTLVVQSLHGVFKVKDTTTLQQHLVDGRGMIIIRMPKDFPPFPQKLKFREPQREERICLVTTNFQTKSMSSMVSDTSCTFPSGDGIFWKHWIQTKDGQCGSPLVSTRDGFIVGIHSASNFTNTNNYFTSVPKNFMELLTNQEAQQWVSGWRLNADSVLWGGHKVFMVKPEEPFQPVKEATQL [D82G],0.052,0.0571,0.0628,0.0656,0.0662,0.054,0.0558,0.0665,0.0727,,,0.0552,,0.0568,0.0464,0.0582,
MGESLFKGPRGYNPISSSICHLTNESDGHTTSLYGIGFGPFIITNKHLFRRNNGTLVVQSLHGVFKVKDTTTLQQHLVDGRDMIIIRMPKDFPPFPQKLKFREPQREERICLVTTNFQTKSMSSMVSDTSCTFPSGDGIFWKHWIQTKDGQCGSPLVSTRDGFIVGIHSASNFTNTNNYFTSVPKNFMELLTNQEAQQWVSGWRLNADSVLWGGHKVFMVKPEEPFQPVKEATQL [D11G],0.062,0.0843,0.063,,0.0763,0.0678,0.0775,0.0678,0.0486,0.0895,0.0747,0.0628,,0.0804,0.0742,0.0798,
MGESLFKGPRDYNPISSSICHLTNESDGHTTSLYGIGFGPFIITNKHLFRRNNGTLVVQSLHGVFKVKDTTTWQQHLVDGRDMIIIRMPKDFPPFPQKLKFREPQREERICLVTTNFQTKSMSSMVSDTSCTFPSGDGIFWKHWIQTKDGQCGSPLVSTRDGFIVGIHSASNFTNTNNYFTSVPKNFMELLTNQEAQQWVSGWRLNADSVLWGGHKVFMVKPEEPFQPVKEATQL [L73W],0.0698,0.0839,,,,,,0.0687,0.0361,,,0.0575,,,,0.0484,
